{
  "source": "PubChem BioAssay AID651820",
  "about": "(National Center for Advancing Translational Sciences (NCATS), 2012)",
  "note": "Out of some 340,000 compounds screened, about 12,000 (3.5%) were called active. Inconclusive means that the source gave no clear call. Such entries were picked first, then a sample of the others. Calls come from the whole dose curve; as a rule, active = well fitted inhibition curve with a large enough effect; inconclusive = small, poorly fitted or top-dose-only effect, or another doubt; inactive = no such curve, though single readings can be large or run the other way. Potencies of inconclusive entries are left out as doubtful fits. Residues, ends and D or L forms follow the SMILES beside them. *: point of attachment. CH2Cl = ClC*",
  "data": [
    {"assay": "qHTS Assay for Inhibitors of Hepatitis C Virus (HCV); note: potency is the fitted concentration of half-maximal effect; tags give direction and shape of the fitted curve; for activity change, negative = inhibition: % is set by controls: 0 for no effect and ±100 for the full control effect", "conditions": "Huh7.5.1 HCVcc-Cre (HCVcc is cell-culture hepatitis C virus) infection, luciferase reporter, 44 h; activity change, negative = inhibition: at 41.8 µM (top of the series) unless noted", "method_in_brief": "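Infectious HCVcc-Cre (~0.5 moi) was added to cells just after compound, with cells seeded 4 h earlier at 1,000 per well. Luciferase activity after 44 h culture reported infection; substrate was incubated 15 min at room temperature before reading.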", "values": [
      {"smiles": "COc1ccc(-c2noc(CCC(=O)N3CCN(c4ccc(Br)cc4)CC3)n2)cc1", "Potency": "inconclusive [inhibitor, single point]"},
      {"smiles": "Cc1ccc(OCC(=O)Nc2ccncc2)c(C)c1", "Potency": "inconclusive [inhibitor, single point]"},
      {"smiles": "COc1ccc(C(C)NC(=O)CC23CC4CC(CC(C4)C2)C3)cc1", "note": "(centres undefined)", "activity change, negative = inhibition": "inactive: 1.87%"},
      {"smiles": "COc1ccc(CN2CCN(c3ccc(F)cc3)CC2)c(OC)c1OC", "Potency": "inconclusive [inhibitor, single point]"},
      {"smiles": "O=C(NNC1OC(CO)C(O)C(O)C1O)c1cccnc1", "note": "(centres undefined)", "activity change, negative = inhibition": "inactive: -1.28%"},
      {"smiles": "Cc1ccc(C)c(-n2c(=O)c(C#N)cc3c(=O)n4ccccc4nc32)c1", "activity change, negative = inhibition": "inactive: 23.4%"},
      {"smiles": "O=C1SCCC1NS(=O)(=O)c1ccccc1[N+](=O)[O-]", "note": "(centres undefined)", "Potency": "inconclusive [inhibitor, single point]"},
      {"smiles": "Cc1ccc(Sc2ncccc2C(=O)NCC(c2ccc(F)cc2)N2CCOCC2)c(C)c1", "note": "(centres undefined)", "Potency": "inconclusive [inhibitor, single point]"},
      {"smiles": "CC(C)c1ccc(O)c(C(=O)c2cnn(-c3ccccc3)c2)c1", "Potency": "inconclusive [inhibitor, single point]"},
      {"smiles": "CC(C)C[C@@H](CN1CCCC1CN1C(=S)NC[C@@H]1Cc1ccc(O)cc1)N1C[C@H](Cc2ccccc2)N(CC2CCCCCC2)C1=S", "note": "(some centres undefined)", "Potency": "inconclusive [inhibitor, partial curve, poor fit]"},
      {"smiles": "C/C(=N\\NC(=O)COc1ccc(C)cc1[N+](=O)[O-])c1ccc2c(c1)OCCO2", "Potency": "inconclusive [inhibitor, single point]"},
      {"smiles": "O=C(CCNC(=O)c1ccccc1)NNC(=O)c1ccc(F)cc1", "activity change, negative = inhibition": "inactive: 6.04%"},
      {"smiles": "O=C(NCCCn1ccnc1)c1cccc(S(=O)(=O)N2CCCCCC2)c1", "Potency": "inconclusive [inhibitor, single point]"},
      {"smiles": "COc1ccccc1N1CCN(C(=O)C(=O)c2c(C)[nH]c3ccccc23)CC1", "activity change, negative = inhibition": "inactive: 11.4%"},
      {"smiles": "O=C(CSc1nc2ccccc2[nH]1)Nc1cc(C(F)(F)F)ccc1N1CCOCC1", "Potency": "inconclusive [inhibitor, partial curve]"},
      {"smiles": "CC(=O)Nc1ccc(NC(=O)CSc2nnnn2-c2ccc3c(c2)OCCO3)cc1", "activity change, negative = inhibition": "inactive: 29.6%"},
      {"smiles": "CS(=O)(=O)c1sc2nc(-c3cccs3)cc(-c3ccccc3)c2c1N", "Potency": "active: 8.91 µM"},
      {"smiles": "Cc1ccc(C)c(Oc2ncnc(N)c2[N+](=O)[O-])c1", "activity change, negative = inhibition": "inactive: -12.8%"},
      {"smiles": "CN1C(=O)/C(=C2\\SC(N3CCCCCC3)=NC2=O)c2ccccc21", "Potency": "inconclusive [inhibitor, single point]"},
      {"smiles": "CN1CCN(S(=O)(=O)c2ccc(N(C)Cc3ccc(C(F)(F)F)cc3)c([N+](=O)[O-])c2)CC1", "Potency": "active: 3.16 µM"},
      {"smiles": "COc1ccccc1N(C)S(=O)(=O)c1ccc(C(=O)NCc2ccc3c(c2)OCO3)cc1", "Potency": "inconclusive [inhibitor, single point]"},
      {"smiles": "Cn1nc(C(C)(C)C)cc1C(=O)NCc1ccc2c(c1)OCO2", "Potency": "active: 1 µM"},
      {"smiles": "CCOc1ccc(NC(=O)CCN2CCN(c3ccccc3OC)CC2)cc1", "Potency": "inconclusive [inhibitor, single point]"},
      {"smiles": "COc1cc(C2CC(=O)C3=C(C2)Nc2ncnn2C3c2cccs2)cc(OC)c1OC", "note": "(centres undefined)", "activity change, negative = inhibition": "inactive: -0.367%"},
      {"smiles": "O=C1c2c([N+](=O)[O-])cc([N+](=O)[O-])cc2S(=O)N1Cc1ccccc1", "note": "(centres undefined)", "activity change, negative = inhibition": "inactive: 13%"},
      {"smiles": "COc1ccc(N2CCN(c3ccc(NC(=O)/C=C\\C(=O)O)cc3)CC2)cc1", "activity change, negative = inhibition": "inactive: -3.05%"},
      {"smiles": "CCOc1ccc2oc(C(=O)N(Cc3nnc(-c4ccccc4Cl)o3)C3CC3)c(C)c2c1", "Potency": "inconclusive [inhibitor, partial curve]"},
      {"smiles": "O=C(NCCNC(=O)c1cc(OCC(F)(F)F)ccc1OCC(F)(F)F)Nc1ccccc1", "Potency": "inconclusive [inhibitor, full curve, poor fit]"},
      {"smiles": "O=C(O)c1cc[c]([Hg][Cl])cc1", "Potency": "inconclusive [inhibitor, full curve]"},
      {"smiles": "O=C(CCN1C(=O)/C(=C\\c2cccs2)SC1=S)Nc1nccs1", "Potency": "inconclusive [inhibitor, full curve, poor fit]"},
      {"smiles": "CCCCNC(=O)C1CCN(c2nc(C)cc(C)n2)CC1", "Potency": "inconclusive [inhibitor, full curve]"},
      {"smiles": "CC(C)c1ccccc1NC(=O)COC(=O)c1cccnc1", "activity change, negative = inhibition": "inactive: 9.43%"},
      {"smiles": "CCn1cc(C2=NCCO2)c2ccccc21", "Potency": "inconclusive [inhibitor, partial curve]"},
      {"smiles": "CCOC(=O)C1CCN(C(=O)Cc2ccc(C)cc2)CC1", "activity change, negative = inhibition": "inactive: 5.91%"},
      {"smiles": "CCN(CC)S(=O)(=O)c1cccc(C(=O)N/N=C/c2cccc(O)c2O)c1", "Potency": "inconclusive [inhibitor, partial curve]"},
      {"smiles": "O=C(NCc1ccccn1)c1ccc(NS(=O)(=O)c2ccccc2)cc1", "Potency": "inconclusive [inhibitor, single point]"},
      {"smiles": "Cc1cnc(NC(=O)c2cc3c(C)nn(Cc4ccccc4Cl)c3s2)s1", "Potency": "inconclusive [inhibitor, full curve, poor fit]"},
      {"smiles": "Cc1ccc(C)c(NC(=O)CSc2n[nH]c(-c3ccccn3)n2)c1", "Potency": "inconclusive [inhibitor, single point]"},
      {"smiles": "CCOc1nc(OCC)c2cnn(C)c2n1", "Potency": "inconclusive [inhibitor, single point]"},
      {"smiles": "C[C@@H](NC(=O)/C(C#N)=C/c1ccc(O)c(O)c1)c1ccccc1", "Potency": "inconclusive [inhibitor, single point]"},
      {"smiles": "CC(=O)NC(CC(C)C)C(=O)NC(Cc1ccccc1)C(=O)CCl", "note": "(stereo not drawn) (Ac-Leu-Phe-CH2Cl; configuration not given here)", "Potency": "inconclusive [inhibitor, single point]"},
      {"smiles": "CC(C)(C)c1nc2ccccc2c2nnc(SCC(=O)Nc3nc4ccccc4s3)n12", "Potency": "active: 12.6 µM"},
      {"smiles": "O=C(NCCCN1CCOCC1)c1ccccc1N1C(=O)[C@@H]2Cc3c([nH]c4ccccc34)C(c3ccc(F)cc3)N2C1=O", "note": "(some centres undefined)", "activity change, negative = inhibition": "inactive: -19.2%"},
      {"smiles": "CC1CCCCC1NC(=O)c1cn(C)c2ccc(S(=O)(=O)N3CCCC3)cc2c1=O", "note": "(centres undefined)", "activity change, negative = inhibition": "inactive: 8.14%"}
    ]}
  ]
}
